Results published in the supplement of paper PMC9513381.

B1: B2000 (protein)
chain 1: EVQLVQSGAEVKKPGESLKISCKGFGYSFSNYWIAWVRQMPGKGLEWMGIIYPEDSDTRDSPSSQGQVTMSVDKSTSTAYLQWSSLKASDTAMYYCVRRSGHLIWHGFDIWGQGTMVTVSS
chain 2: DIQLTQSPSSLSASVGDRVTVTCRASQGINYFLAWFQQKPGKAPKSLIYAASSLQSGVPSRFSGSGSGTDFTLTISSLQPEDFATYFCLQYYSYPWTFGPGTKVEIK
B2: B035 (protein)
chain 1: QVQLQESGPGLVKPSETLSVTCAVSGYSISSSYYWGWIRQSPGRGLEWIGSIYHSGTTYYNPSVKSRLTISVDTSTNQFSLTLRSVTAADTAMYYCASNSGQVVIGAFDIWGQGTMVTVSS
chain 2: DIQMTQSPSSLSASVGDRVTITCQASQDISNYLNWYQQKPGKAPKLLIYGASNLETGVPSRFSGSGSGTDFTFTISSLQPEDIATYYCQKYDNVPLTFGGGTKVEIK
B3: B1059 (protein)
chain 1: QVQLVESGGGLVKPGGSLRLSCAASGFTFTNYYMTWIRQAPGKGLEWVSYIRSENGNTYYADSVKGRFTISRDNAKNLLYLQMNNLRVEDTAVYYCARDLDTVTLNGIYWYFDLWGRGTLVTVSS
chain 2: DIQMTQSPSSVSASVGDRVTITCRASQGISRSVAWYQQKPGEAPKLLIYAASSLQSGVPSRFSGSGSGTDFTLVISSLQPEDFATYYCQQSNSVYLLSFGGGTKVEIK
B4: B1060 (protein)
chain 1: QVQLVQSGPEVKKPGTSVKVSCKSSEFTLTPSAVQWVRQARGQRLEWIGWIVVGSGKTDYAGNLRERVTITRDTSTGTVYMEVNSLRSEDTAVYFCAAPHCNRTKCHDGFDMWGQGTMVTVSS
chain 2: EIVLTQSPGTLSLSPGERATLSCRASQSVSSNYLAWYQQKPGQAPRLLIYGASSRATGIPDRFGGSGSGTDFILTISRLEPEDFAVYHCQQYGISPWTFGQGTKVEIK
B5: B1061 (protein)
chain 1: EVQLVQSGPEVKKPGESLKISCRASGYSFTNYWIGWVRQIPGKGLEWLGIIYPGDSDTTYSPSFQDHVTLSADNSISTAYLQWNSLKASDTAMYYCARLAVVIDLSVFDFWGQGTLVTVS
chain 2: DIQLTQSPSFLSASVGDRVTITCRASQGISKYLGWYQQKPGKAPKLLIYGASTLHSGVPSRFSGSGSGTEFTLTIRSLQPEDFATYYCQHLNSYLITFGQGTRLEIK
B6: B1062 (protein)
chain 1: EVQLVQSGAEVKKPGESLKISCKGSGYTFANYYIGWVRQLPGKGLDWLGIIYPGDSETIYSPSFQGPATISADKSISTAYLQWSSLRASDTAMYYCARLGVDIDVLPFDYWAQGTLVTVSS
chain 2: DIQLTQSPSFLSASVGDRVTITCRASQDISSYLAWYQQKPGKAPKLLIYAASTLHSGVPSRFSGSGSGTEFTLTINSLQPEDFATYYCQQLNSYSFTFGPGTKVDIK
B7: B1063 (protein)
chain 1: QVQLQESGPGLVKPSGTLSLTCAVSGGSIRSSNWWSWVRQPPGKGLEWIGEIYLSGSTDYNPSLKSRVTISVDKSKNRLSLNLTSVTAADTAVYYCATMGNTDMVPKNYYMDVWGKGTTVTVSS
chain 2: EIVLTQSPATLSLSPGERATLSCRASQTVSSYLAWYQQKPGQAPRLLIYDTSARATGIPARFSGSGSGTDFTLTISSLEPEDFAVYYCQQRSDWPPTFGQGTRLEI
B8: B1064 (protein)
chain 1: EVQLLESGGGLVQPGGSLRLSCRASGFTFSNYAMSWVRQAPGKGLECVSGISGSGGFTNYADPVKGRFIISRDDSKNTLYLQMNSLRGEDTAVYFCAKGDWLSPNLNHYYMDLWGKGTTVTVSS
chain 2: DIQMTQSPSTLSASVGDRVTIACRASQSISNWLAWYQQKPGKAPKLLIYKASSLESGVPSRFSGSGSGTEFTLTISGLQPDDFATYYCQQYNSFPLTFGGGTKVDIK
B9: B1065 (protein)
chain 1: QVQLVESGGGLVKPGGSLRLSCAASGFTFSNAWMNWVRQAPGKGLDWVGRIKNRRDGGTTDYAAPVKGRFTISRDDSKNTLYLQMNSLKIEDTAVYYCTTDRGDVSRFLDLFHDAFDVWGQGTMVTVSS
chain 2: DIQMTQSPSSLSASVGDRVTISCRANQSIRYYLNWYQQKPGKAPKLLIYAVSSLHSGVPSRFSGSGSDTDFTLTITSLQPEDFATYYCQQCYTTPHFGGGTKVEIK
B10: B1066 (protein)
chain 1: QVQLVESGGGSVKPGGSLRLSCAGSGLSFSRAWMNWVRQAPGKGLEWVGRIKSKNDGAAIDYAAPVKGRFTISRDDSRSTLYLQMDSLKTEDTAVYYCTTDLTSITMVEHDAFDIWGQGTMVTVSS
chain 2: DIQMTQSPSSLSASVGDRVTITCRAGQSVSTFLNWYQQRPGKAPKLLIYAASILQSGVPSRFSGSGSGTDFTLTISNLQPEDFATYYCQQSYGPLGSFGQGTKLEIK
B11: B2002 (protein)
chain 1: EVQLLESGGALAQPGGSLRLSCAASGFPFSTYAMSWVRQAPGKGLEWVSGISSRGGRTYNADSVKGRFTISRDNSKNTLYLQMNSLRAEDTAVYYCARDEILHGDNPEYFQHWGQGTLVTVSS
chain 2: DIQMTQSPSTLSASVGDRVTITCRASQTINSWLAWYQQKPGKAPTLLIYDASSLKSGAPSRFSGSGSGTEFILTISSLQPDDFATYYCQQYHSYSPLTFGGGTKVEIK
B12: B1067 (protein)
chain 1: QVQLVESGGGLVQPGGSLRLSCAASGFPFSQYDMHWVRQTTTKGLEWVAVIGTAGEAYYPDSVKGRITISRDNARNSLYLQINSLRAEDTAVYYCVRDVGQVWPYFDSWGQGILVTVSS
chain 2: DIQMTQSPSSLSATVGDRVTITCRASQTIGNYLNWYQQKPGKAPKLLIYAASSLQSGVPSRFSGSGSGTDFTLTISSLQAEDFATYYCQQSYTTLALTFGGGTKVEIK
B13: B1068 (protein)
chain 1: QVQLVQSGAEVKKPGASVKVSCKTSGYTLSNYGLSWVRQAPGQGLEWMGWISAHDGDTKYAQKFQGRVTMTTDTSTSTAYMELRSLRSDDTAMYYCAREGGLTTMTLSDAFDIWGQGTMVIVSS
chain 2: DIVMTQSPDSLAVSLGERATINCKSSQSVLYTSNNQDYLAWYQQKPGQPPKLLIYWASARQSGVPDRFSGSGSGTAFTLTISSLQAEDVAVYYCQQYFQTPLTFGGGTKVEIK
B14: B1069 (protein)
chain 1: QVQLVQSGAEVKKPGSSVKVSCKASGGTFSSSSITWVRQAPGQGLEWMGGIIPTLGIANYAQKFQDRLTLIADKSTSTASMELSSLRSDDTAVYYCARVAGYSGYGAAEYFDLWGRGTLVTVSS
chain 2: QSVLTQPPSVSGAPGQRVTISCAGTNSNIGAGYDVHWYQQLPGTAPKLLIYANNNRPSGVPDRFSGSKSGTSASLAITGLQAEDEADYYCQSYDSSLSGSVFGGGTSLTVL

Target: SARS-CoV-2 Wuhan-Hu-1 spike pseudovirus
Test: pseudovirus neutralization IC50; higher = weaker neutralization
Experimental: (§1)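 Single-round luciferase reporter pseudovirus mixed with antibody dilutions and put on 293T-ACE2 cells for 48 h; signal relative to no-antibody wells, four-parameter fit.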

| Binder | pseudovirus neutralization IC50 |
| --- | --- |
| B1 | 5.14 ng/mL |
| B2 | > 1000 ng/mL |
| B3 | 14.4 ng/mL |
| B4 | 4.66 ng/mL |
| B5 | 2.86 ng/mL |
| B6 | 3.82 ng/mL |
| B7 | 4.45 ng/mL |
| B8 | 7.63 ng/mL |
| B9 | 6.49 ng/mL |
| B10 | 7.44 ng/mL |
| B11 | 16.3 ng/mL |
| B12 | > 1000 ng/mL |
| B13 | 45.8 ng/mL |
| B14 | 76.3 ng/mL |

Target: SARS-CoV-2 Wuhan-Hu-1 spike pseudovirus
Test: pseudovirus neutralization IC90; higher = weaker neutralization
Experimental: as §1

| Binder | pseudovirus neutralization IC90 |
| --- | --- |
| B1 | 26.4 ng/mL |
| B2 | > 1000 ng/mL |
| B3 | 49.9 ng/mL |
| B4 | 16.6 ng/mL |
| B5 | 8.72 ng/mL |
| B6 | 19.6 ng/mL |
| B7 | 16.7 ng/mL |
| B8 | 34.3 ng/mL |
| B9 | 20.3 ng/mL |
| B10 | 43.7 ng/mL |
| B11 | 53.1 ng/mL |
| B12 | > 1000 ng/mL |
| B13 | 536 ng/mL |
| B14 | > 1000 ng/mL |

Target: SARS-CoV-2 Delta (B.1.617.2) spike RBD
Test: ELISA binding EC50; higher = weaker binding; ELISA of recombinant human antibody on coated antigen, from 10 µg/ml in fourfold dilutions; four-parameter fit.

| Binder | ELISA binding EC50 |
| --- | --- |
| B1 | 19.1 ng/mL |
| B2 | > 1000 ng/mL |
| B3 | 31.2 ng/mL |
| B4 | 15.7 ng/mL |
| B5 | 23.8 ng/mL |
| B6 | 14.8 ng/mL |
| B7 | 2.39 ng/mL |
| B8 | 17.6 ng/mL |
| B9 | 3.9 ng/mL |
| B10 | 2.52 ng/mL |
| B11 | 5.89 ng/mL |
| B12 | 6.3 ng/mL |
| B13 | 9.61 ng/mL |
| B14 | 7 ng/mL |

Target: SARS-CoV-2 Omicron BA.1 spike protein
Test: as above

| Binder | ELISA binding EC50 |
| --- | --- |
| B1 | 38.1 ng/mL |
| B2 | > 1000 ng/mL |
| B3 | 10.3 ng/mL |
| B4 | 218 ng/mL |
| B5 | 9.57 ng/mL |
| B6 | 67.6 ng/mL |
| B7 | 5.42 ng/mL |
| B8 | > 1000 ng/mL |
| B9 | 10.7 ng/mL |
| B10 | 5.17 ng/mL |
| B11 | 11.9 ng/mL |
| B12 | 15 ng/mL |
| B13 | 40.6 ng/mL |
| B14 | 2.94 ng/mL |

Target: SARS-CoV-2 Wuhan-Hu-1 spike receptor-binding domain
Test: as above

| Binder | ELISA binding EC50 |
| --- | --- |
| B1 | 3.63 ng/mL |
| B2 | 7.06 ng/mL |
| B3 | 1.43 ng/mL |
| B4 | 2.7 ng/mL |
| B5 | 2.63 ng/mL |
| B6 | 2.68 ng/mL |
| B7 | 2.63 ng/mL |
| B8 | 2.26 ng/mL |
| B9 | 2.54 ng/mL |
| B10 | 1.76 ng/mL |
| B11 | 2.95 ng/mL |
| B12 | 2.97 ng/mL |
| B13 | 2.32 ng/mL |
| B14 | 3.31 ng/mL |

Recombinant human monoclonal antibodies (heavy:light variable regions). ELISA EC50 on the named antigen, from 10 µg/ml down; IC50 / IC90 against spike pseudovirus on 293T-ACE2 cells, 48 h; lower = stronger. Calls: IC50 above 1,000 ng/ml = non-neutralizing; EC50 above 1,000 ng/ml = non-binder. The source prints 1000 for neutralization that was not reached; it is given as >1000 ng/ml. Only binders of the Wuhan-Hu-1 domain have neutralization values.
